One assay has as its target T1, huD1-Fc (human, UniProt P22607 23-126).
T1 construct: domain: D1; also called huFGFR3-D1; hFGFR3-D1; not shown: Fc part
T1 sequence: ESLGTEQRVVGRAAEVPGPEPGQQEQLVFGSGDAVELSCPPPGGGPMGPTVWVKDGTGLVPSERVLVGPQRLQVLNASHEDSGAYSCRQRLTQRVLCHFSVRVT
Description: ELISA, plate-coated antigen, fynomer with 9E10. In general terms: ELISA stands for enzyme-linked immunosorbent assay.

A further assay deals with T2, huD2-Fc (human, UniProt P22607 151-244).
T2 construct: domain: D2; also called huFGFR3-D2; human FGFR3c D2 domain; not shown: Fc part
T2 sequence: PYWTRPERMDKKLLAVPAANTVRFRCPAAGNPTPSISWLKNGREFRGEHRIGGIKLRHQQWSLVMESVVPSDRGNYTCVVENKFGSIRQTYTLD
Description: ELISA, plate-coated antigen, fynomer with 9E10.

B1: FF44L65G12 (designed binder)
chain: GVTLFVALYDYEVYGPTPMLSFHKGEKFQILRGGQGPYWEARSLTTGETGLIPSNYVAPVDSIQ
notes: C-terminal myc-His6 tag; not shown: C-terminal myc-hexahistidine tag (pQE12 construct)
As for B1, the binding result with huD1-Fc and in the assay with huD2-Fc was “no binding (tested: 200 nM fynomer)” throughout.

B2: FF44L65G7 (designed binder)
chain: GVTLFVALYDYEVYGPTPMLSFHKGEKFQILRGGDGPYWEARSLTTGETGLIPSNYVAPVDSIQ
notes: as for B1
Turning to B2, the binding result with huD1-Fc and with huD2-Fc was “no binding (tested: 200 nM fynomer)” in each case.

B3: FF2L4C3 (designed binder)
chain: GVTLFVALYDYEVYGPTPMLSFHKGEKFQILNSSEGPYWEARSLTTGETGLIPSNYVAPVDSIQ
notes: also called parent fynomer; not shown: C-terminal myc-hexahistidine tag (pQE12 construct)
For B3, the binding result in the assay with huD1-Fc and with huD2-Fc was “no binding (tested: 200 nM fynomer)” throughout.

B4: FF48L66G7 (designed binder)
chain: GVTLFVALYDYEVYGPTPMLSFHKGEKFQILKGGSGPYWEARSLTTGETGLIPSNYVAPVDSIQ
notes: as for B1
Regarding B4, the binding result with huD1-Fc and with huD2-Fc was “no binding (tested: 200 nM fynomer)” in each case.

B5: FF43L65D5 (designed binder)
chain: GVTLFVALYDYEVYGPTPMLSFHKGEKFQILRKGKGPYWEARSLATGETGLIPSNYVAPVDSIQ
notes: as for B1
For the molecule B5, the binding result in the assay with huD1-Fc and in the assay with huD2-Fc was “no binding (tested: 200 nM fynomer)” in each case.

B6: FF44L65B7 (designed binder)
chain: GVTLFVALYDYEVYGPTPMLSFHKGEKFQILRRGSGPYWEARSLTTGETGLIPSNYVAPVDSIQ
notes: Fynomer derived from FF2L4C3; C-terminal myc-His6 tag; not shown: C-terminal myc-hexahistidine tag (pQE12 construct)
Turning to B6, the binding result with huD1-Fc and with huD2-Fc was “no binding (tested: 200 nM fynomer)” in each case.

The values above are taken from patent JP2021165268A (dated 2021).
